According to the supplement of paper PMC3334620:
The full ranking holds about 33,000 sequences; the median of “E-score (-0.5 to 0.5)” is about -0.056, and the highest 2% start at about 0.38. The list shows a part of the results.

Biological target: Stb4 (UniProt P50104)
Assay: PBM E-score (8-mer binding enrichment) (E-score (-0.5 to 0.5)); higher = stronger / more preferred TF binding; most listed sequences are background and not binding sites
Conditions: protein concentration: 200 nM; construct: GST-DNA-binding domain
Method in brief: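 Using PURExpress in vitro transcription/translation, GST-tagged yeast transcription factors were made in full-length or DNA-binding-domain form. These were applied at about 100-200 nM to double-stranded universal all-10-mer Agilent arrays, and bound protein was detected with fluorescent anti-GST. Scans were normalised with masliner before the Universal PBM Analysis Suite assigned E-scores to ungapped eight-base words pooled with their reverse complements.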

Sequence	PBM E-score
GATCCTCA	0.114
CAGTCTCA	-0.134
ATGCCAGC	-0.183
GGGATCCC	0.23
AGCATGAT	-0.168
AGCTGACC	0.0118
CGCGAACG	0.0891
AAACGATC	-0.099
CGGCCTCC	0.188
GAATAGGC	0.0273
ACCTACGC	0.0721
AAGGCCGA	0.323
AGATTGAA	-0.0594
TCTCCGAA	0.384
AACATACC	0.119
ACAGGATA	-0.0926
TCATACCA	-0.133
GCGGTAAA	0.188
ATACCTCC	-0.0529
ACGCTCCA	-0.0409
ACCTCCCC	0.148
CCCGCCCG	0.324
GCGACAAA	-0.0477
ACACTGAA	-0.00995
ATCTCAAA	-0.0585

Sequence	PBM E-score
GAACTGCA	-0.042
GATATCAA	-0.0174
CAAGACTA	-0.254
CATGGGAG	-0.182
TGTGGCAA	0.022
GACTCCAA	-0.225
GCTACAGA	-0.0933
CCTGACCA	-0.209
CGCGGTAG	0.0883
CAGACTTA	-0.315
ATATTAAC	0.129
ATAACAAC	-0.0405
GCTCGTTA	-0.0794
CCTAACTC	-0.0754
CAAACGTC	-0.132
CTCTGCCA	-0.229
GCATACCC	0.14
CTCGGACA	0.366
ATTGTCTA	-0.0114
ATCTGATA	-0.0898
GCAATCGC	-0.111
AATGGCTC	-0.131
CGTAGGCA	-0.155
CTAATTGA	0.00327
CCACAATA	0.0305

Sequence	PBM E-score
TGATACCA	-0.0462
AGACAAGC	-0.115
CTTCGGAC	0.386
AAACGCTC	0.051
CGTAGCAC	-0.154
TCGATGCA	-0.104
AATTGGGT	-0.119
GAGAGATC	-0.0968
AAATCGAC	-0.102
ATCGCCCA	-0.143
CTGACGTC	-0.271
ATGGATTA	-0.303
ACATGGCT	-0.0761
AGTTGGTG	-0.0868
CCTCATAA	-0.183
ACAACCAC	0.0252
CCACCGGA	0.378
GCGGCGAC	0.149
ATCATTGC	-0.205
CCTCGCAC	-0.0845
TCTGACCA	-0.24
AGCGCTCG	-0.0312
ACTCTGGG	-0.257
AGCCGGCG	0.325
TCCGTAAA	0.274

Sequence	PBM E-score
GTAGAGCA	-0.291
ACACGACA	-0.232
ACAACGAT	0.00979
CCCTCGGA	0.464
CAGGCCGA	0.246
CGACCCAG	0.073
CTTCTCAC	-0.00077
AGTTTCGG	0.412
GAAACGCC	0.118
TGCAGCAA	-0.132
GAGGCATC	-0.088
CCGGGGGA	0.224
AGACAGGA	-0.167
ATGCAATG	-0.183
ATCGCTGC	-0.00678
CAAGCTGA	-0.279
CTTCCTTA	-0.116
GATGTTGA	-0.138
CCCTGTGC	-0.0934
ACCCTACT	-0.156
AAGGGGCA	-0.127
GGGGTTTA	-0.0416
CAGTTGCC	0.101
AAATGGGT	-0.0154
ATTATGGA	-0.154

Sequence	PBM E-score
GCACAACC	-0.0641
CTGATCTC	-0.137
CAAATCTC	0.116
ACAAGGCT	-0.138
CTAACATC	-0.0585
TACTCCGA	0.369
TACGTCGA	-0.143
CCACCGCG	-0.00158
CCTGTCCA	-0.217
CCAGTGAG	-0.196
AATCGTCC	0.0978
GAGCCTGC	-0.0113
AAACGGAC	-0.0576
CTTAAGAA	-0.0442
CTCATTCA	-0.0489
CATTATAC	-0.0466
CCAGCCTC	-0.187
GCGTTGGA	-0.0621
ATGAGCCC	-0.191
TAAAGCCA	-0.278
AAGGCGCC	-0.0644
CCAAGTCC	-0.104
TCATGTCA	-0.183
CTGGGATC	-0.0424
GCCCGGAA	0.423

Sequence	PBM E-score
ACGTCCTG	-0.264
CAGAATAG	-0.0984
GTACTCAA	-0.179
ACGTGGGA	-0.323
AATTCGAT	0.0565
AGGCTATC	0.171
AGAGGTTA	-0.121
AATCACCG	0.113
AATAGGAA	-0.047
TGCCGAAA	0.444
CCGCTATA	0.0382
CGATGCCC	-0.0137
ATTGGAGA	-0.138
CGGTGCGA	0.0264
AATTGGAA	-0.0421
CCAGACGG	-0.0564
ACAACTCA	-0.162
ATAAGATA	-0.0798
CAGTGTGC	-0.277
ACACTCCG	0.141
CAGAGTGA	-0.0625
AGGATGGC	-0.0549
AAGACCAC	-0.242
CTCATTGA	-0.184
AACTCGAT	-0.0356

Sequence	PBM E-score
GTAGCCAA	-0.025
CCAGAGAG	-0.229
CGCTGGCC	-0.184
AGCAGCTG	-0.307
CGAGAGTA	0.208
AGTATAAG	-0.178
CGACAGTC	-0.088
GTAGGCGA	-0.177
AAACCGTT	-0.0185
CCTGCGGA	0.155
CAACATCA	-0.113
TAGGTACA	-0.253
CGCTGCCA	-0.14
ACGTTTAT	-0.169
AGCAGACG	-0.115
GTCTTTGA	-0.0803
CCACGATC	-0.109
CGATAACG	0.147
ACCAAAAT	0.0477
CATGCATC	0.121
CTCAAGTA	-0.237
ACCCCCCC	-0.258
ACCCCGGC	0.177
CAGATACA	-0.0179
GATAACGC	0.14

Sequence	PBM E-score
AGGCCAGC	-0.355
AACTACTG	-0.0775
CACGAGTA	-0.133
GGGGACAA	0.109
TCACATGA	-0.189
GAATACGA	0.041
ATGGATAG	0.0829
ATAGACAA	-0.161
AGTTGCGC	0.00476
AACAGGGT	-0.12
CCCCTGCC	-0.0484
GATGAGGA	-0.0802
AGGCGTTC	-0.0922
TATAGACA	-0.192
GTATGAAA	0.0752
ATTCGAGC	-0.174
GGATTGAA	0.0752
GGGGGTAA	-0.157
ACAGGGTA	-0.192
GGGGGGGA	-0.254
AAGTAACG	-0.0442
AAGTTAGT	0.0765
CGTTATAA	0.0593
AGCAGTTC	-0.305
AAATGGAC	-0.00847

Sequence	PBM E-score
TCAGGTAA	-0.287
AGGCCATC	-0.0517
ATCAGCCA	0.0129
TACGGGGA	0.0916
TCGGATAA	0.487
AAAAGGGT	-0.092
TCTTATAA	0.0481
ATCGCCGA	0.329
AGTCCCCA	-0.364
CGGTCAGA	0.107
CGCGTAAC	0.0425
ATTAAAGC	-0.135
CAGCGCTC	-0.14
TCACTCCA	-0.042
CTTCGCGA	0.0228
ATATCGGA	0.383
CAGCCTGG	-0.203
CTCCTACC	-0.137
TACCCGTA	0.31
AGACTGTG	-0.121
CTAATGTC	-0.021
ATATCCGC	0.389
AGTTGTTC	-0.00774
CAAAAAGG	-0.284
GTACGGAA	0.323

Sequence	PBM E-score
CATAGGCG	-0.143
TACACCTA	-0.142
CCTTCCAA	-0.163
GTATAGCA	-0.0389
GGGCAAAA	0.165
ACGGGCAT	0.0437
GAACGCTA	0.0146
GCAGGGAC	-0.302
GCTAGAGC	-0.0524
CACAGTAC	-0.263
CTCCATTC	-0.26
CTACGGTC	-0.0388
AAATCATT	-0.067
AGAATCCC	0.11
CTCGGGGC	0.291
CCCTTTTC	-0.147
ATTGCTCC	0.136
CAGTCCGG	0.22
CACAACAC	-0.197
CTCGGATC	0.481
CAACTCTG	-0.0468
AACAGACC	0.0491
CGTTATCC	0.196
CCTGACCG	0.017
CATTCGCC	-0.0759

Sequence	PBM E-score
AAAGATTT	0.0492
CCGGTGCC	0.248
AACCCGGA	0.375
ATGCCATC	-0.0233
ACCTAGCC	0.0163
AGGCTGTG	-0.155
GTTCAGTA	-0.196
ACGCGGTA	0.129
GCATATAC	-0.117
ACTACAAA	0.00768
TTAGCTAA	-0.013
ACCACAAG	-0.0565
CGGTCCGC	0.26
ACGATCCG	0.399
ATTGCGTG	-0.0514
GGTCGAGA	-0.15
ATGTCGAG	-0.207
TAATCGTA	-0.218
CCCAAAAA	-0.0931
AGAGGATC	-0.111
TCCTGAGA	-0.136
AAGTAATA	-0.0278
GTCCACAA	-0.193
GCACACAC	-0.077
ACCTAATG	-0.322

Sequence	PBM E-score
CCGCCTAC	0.0518
CCAAGAAC	-0.274
AGTTCAAT	-0.128
CTTGCAGC	-0.153
AACGTAAG	-0.148
GATTCTGA	0.0101
ATCTTTAC	-0.0733
CAATACTG	-0.107
CACCTACA	-0.241
ATTAGATC	-0.0358
GCAAGCTA	-0.151
AACTGACT	0.0534
GCGTACAC	-0.0796
ATCGGATG	0.451
ACCTACTC	-0.111
AGCCGGCC	0.234
AAGCTTGA	-0.101
AAGTCAGA	-0.0753
CACGGTCA	-0.197
GAAATATC	0.205
AGTATGTC	-0.193
GCCCAAAC	-0.0909
ACGACGAA	0.004
ACTCTACT	-0.165
CCCCCAGA	-0.221

Sequence	PBM E-score
AGAGAAGA	-0.105
TTGAAAAA	-0.13
AAAGTCTT	-0.0539
CGTAATTC	0.0682
AACTTATG	-0.174
ATTGCGTC	0.0402
CACCCAAC	0.00076
CTTAACCC	-0.0251
ACTTGCAG	-0.117
CGCCAGTC	-0.0588
ATAAGCTA	-0.0721
ATGGCCAG	-0.181
AGCGAAAA	-0.0577
TCAACGAA	-0.164
ACTTTCCC	0.121
CTTGTTTA	-0.0352
CAATCTTA	-0.0555
AACGCGGT	0.0644
GTATGCCA	-0.0642
CCGTGATC	0.156
ACCTTGCA	-0.223
ACCAGCGG	0.0303
AAAGAGAA	-0.14
CCCTTTCC	0.067
ACCAACAA	0.017

Sequence	PBM E-score
CCTCAAGA	-0.0159
AGGTAACT	-0.211
GCCATAGC	-0.221
CCTGTAAC	-0.187
AAATCATC	-0.0728
AAAAATGT	0.0927
AGACTCTG	-0.238
CCCAACAC	-0.155
CACTATGA	-0.193
ACTATAAT	-0.166
AGGAAATC	0.15
CCACAAAA	0.0182
ACGTTGCG	-0.0806
AGCAGTGG	-0.211
AGGTCTGA	-0.231
TTATCCAA	-0.139
GACGGAAC	0.317
AACGCCGA	0.372
CTGCGACC	-0.176
